Measurements from the supplement of paper PMC11417369.
Some of the results follow.

Each sequence was assayed on PfSIP2 AP2 domain 1 (GST-tagged) (assay: gcPBM binding intensity (ln(normalized median fluorescence intensity)); higher = stronger DNA binding).
In short: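 GST-tagged P. falciparum DNA-binding domains produced in E. coli were incubated for 1 h on an Agilent 4 × 180k array of primer-extended double-stranded 36-bp intergenic genomic probes with negative controls. Binding intensity is the highest Masliner-normalised natural-log median intensity across replicate spots of either probe orientation, with bound protein detected by Alexa488 anti-GST antibody at 488 nm.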
“TTAATATAGGGAAAAAAAAGAAAATCGAAAATGTGT [CACACA_negctrl_site834]” was tested, and the “gcPBM binding intensity (ln)” value was 6.96.
In the case of “ATAGTTACACGCCAAAAAAAAAAAAAAAAAAAAAAA [CACACA_negctrl_site1133]”, the “gcPBM binding intensity (ln)” value is reported as 7.09.
With “TTAAAATGATTGTTACTTTTTTTTCCGTTTTCTTAA [CACACA_negctrl_site1195]” the “gcPBM binding intensity (ln)” value was 6.54.
In the case of “TAACTTCAAAAATCTTGTACATAAATATATAAAACA [XGTACX_site8574]”, the “gcPBM binding intensity (ln)” value is reported as 7.02.
In the case of “AATTTTGTCCTATGTTGTACTATTTTGCTCTATTTT [XGTACX_site7139]”, the “gcPBM binding intensity (ln)” value is reported as 7.07.
In the case of “GTTTATATATTATAAAGTACATATGAATTTAATAAT [XGTACX_site3601]”, the “gcPBM binding intensity (ln)” value is reported as 7.14.
With “AAAAAATAAATAAACATAAATAAATAAATAAATATA [XGTACX_negctrl_site340]” the “gcPBM binding intensity (ln)” value was 6.71.
“ATTTCAAAATATAGCTGTACAAAAAATGTAGATATA [XGTACX_site5843]” was tested, and the “gcPBM binding intensity (ln)” value was 7.13.
In the case of “GATCATTCTAAATATAAACACACATAAATATATACA [CACACA_site9108]”, the “gcPBM binding intensity (ln)” value is reported as 7.02.
In the case of “ATAATATAATAATATTGTACATGGTCAAATATGAAA [XGTACX_site8390]”, the “gcPBM binding intensity (ln)” value is reported as 7.
With “CTTAAAAAAATATATTGTACATATATATATACAACT [XGTACX_site1281]” the “gcPBM binding intensity (ln)” value was 7.25.
With “TATATTCCCATATAACGTACATATGAGACACCAACT [XGTACX_site8099]” the “gcPBM binding intensity (ln)” value was 7.09.
For “ATATAAGTACCTATAACACACATATATTATAAGTAT [CACACA_site7281]”, the “gcPBM binding intensity (ln)” value was 7.04.
With “TAGAATAAATTAATTACACACGGAATTATATATATA [CACACA_site1616]” the “gcPBM binding intensity (ln)” value was 7.83.
In the case of “TATCATATATTATAGCGTACTTATTTATTTATTTAT [XGTACX_site1676]”, the “gcPBM binding intensity (ln)” value is reported as 6.97.
“TATAATAGTTCATAGGTGCAATATAATAAATTTATA [GTGCAC_site9573]” was tested, and the “gcPBM binding intensity (ln)” value was 9.98.
In the case of “AAAAAAAAAAAAAAAAGTACATGAAAAAAAGAAGAA [XGTACX_site8384]”, the “gcPBM binding intensity (ln)” value is reported as 7.8.
“TTTTTTTTTTAGTATGAACACACATATATATTATAA [CACACA_site8957]” was tested, and the “gcPBM binding intensity (ln)” value was 6.88.
For “ATAAAACTTATTTAACGTACATATTTTATATACCTT [XGTACX_site5353]”, the “gcPBM binding intensity (ln)” value was 7.04.
With “TATAAAATAAATAACAAAAAAAATAAAATAAAAATA [TGCATGCA_negctrl_site297]” the “gcPBM binding intensity (ln)” value was 6.63.
With “AAAAAATACATCAAAAGAAACATATATATATATATA [GTGCAC_negctrl_site719]” the “gcPBM binding intensity (ln)” value was 9.67.
“AATGGTTATAATATATGTACATATAAATATACTGAA [XGTACX_site8533]” was tested, and the “gcPBM binding intensity (ln)” value was 7.08.
With “TATAGCAAAATATTCACACAAACTATTAATAAAAGT [CACACA_site5795]” the “gcPBM binding intensity (ln)” value was 7.05.
With “TATATTTATAAATGAACACACACGCAATTTGAATCG [CACACA_site3370]” the “gcPBM binding intensity (ln)” value was 7.24.
With “CTGTATTTATTTTTCTGTACCAAATCACCCCTTGTA [XGTACX_site395]” the “gcPBM binding intensity (ln)” value was 7.1.
“TACGTTTTATGACACACACACAAAAAAAAAAAAAAA [CACACA_site7764]” was tested, and the “gcPBM binding intensity (ln)” value was 7.07.
In the case of “GATGTATAAAATAATACATGCATGTCCTACATATAT [TGCATGCA_site155]”, the “gcPBM binding intensity (ln)” value is reported as 6.89.
“TTTCTTTTTCGATATACACACTGTATGTGTCTAAAA [CACACA_site6054]” was tested, and the “gcPBM binding intensity (ln)” value was 6.85.
In the case of “TTTCCGGTAATATGGAAATATATGTGGGTTTTTTTT [CACACA_negctrl_site1536]”, the “gcPBM binding intensity (ln)” value is reported as 6.71.
“ACTATTTTAAAAATATGTACATACGTTGTAATTTAA [XGTACX_site7999]” was tested, and the “gcPBM binding intensity (ln)” value was 7.23.
With “CGAAGGATAAACATACGTACATATATGTGTATAATA [XGTACX_site779]” the “gcPBM binding intensity (ln)” value was 6.92.
“TTGTATTAAAATCAAGTGCATATAATTTAAGTTCAT [GTGCAC_site9495]” was tested, and the “gcPBM binding intensity (ln)” value was 8.13.
In the case of “CTTTGGTTATAACACACATGCACACGTAAATAAATA [TGCATGCA_site976]”, the “gcPBM binding intensity (ln)” value is reported as 7.63.
With “CATCACCTTTTTAAATGTACGCATAATACCAAAAAA [XGTACX_site1587]” the “gcPBM binding intensity (ln)” value was 7.28.
In the case of “GTAGGTTACAAAATGTGAGAGAAGCAAATATAGAAA [CACACA_negctrl_site1819]”, the “gcPBM binding intensity (ln)” value is reported as 6.99.
With “TTTTGTTTTTAGTTTATACACACCATATTAATATAA [CACACA_site3102]” the “gcPBM binding intensity (ln)” value was 7.27.
ATATTTTTATATGAGGTGCATATAATGACAATTAAG was tested, and the “gcPBM binding intensity (ln)” value was 10.6.
ATACTATTTAAATGGGTGCTAAAAATAACAAAAATT was tested, and the “gcPBM binding intensity (ln)” value was 8.88.
For “TCTTTTTATGTTCTAGAGCATTTTATTATTTAACAT [CACACA_negctrl_site1699]”, the “gcPBM binding intensity (ln)” value was 6.93.
“AATCGAAATCGTGCACGGACACATGCAGTAGCCGAG [XGTACX_site6001]” was tested, and the “gcPBM binding intensity (ln)” value was 7.99.
In the case of “TTCCCCCCCAGACACACACACACATACATACCACAT [CACACA_site2305]”, the “gcPBM binding intensity (ln)” value is reported as 8.83.
“ATATATATACACAATAGTACGTGTAATATTATTATT [XGTACX_site2151]” was tested, and the “gcPBM binding intensity (ln)” value was 7.56.
“TATACCTATAAATACACACACATATATAAATAAATA [CACACA_site6730]” was tested, and the “gcPBM binding intensity (ln)” value was 7.22.
In the case of “GAAGTTAGTGTTGACTGTACATATATATGTATATAT [XGTACX_site7243]”, the “gcPBM binding intensity (ln)” value is reported as 7.21.
In the case of “TTTTCTTTTTGTTCGTGTACACACATGAAATTTATA [XGTACX_site3301]”, the “gcPBM binding intensity (ln)” value is reported as 7.18.
With “AAACGTACATAATACACACACATGTATACATATAAA [CACACA_site2048]” the “gcPBM binding intensity (ln)” value was 7.12.
In the case of “ATTTCTTTTTTTTTTTTTTTTAATGTAAAACATTTT [CACACA_negctrl_site1462]”, the “gcPBM binding intensity (ln)” value is reported as 6.89.
With “GGTGGTAAAAAACCTGCATGTCGAAATATTAAATAC [TGCATGCA_site33]” the “gcPBM binding intensity (ln)” value was 7.23.
“AAAAAAAAAAAAAAGAGTACTCATATAAAAATATAA [XGTACX_site6551]” was tested, and the “gcPBM binding intensity (ln)” value was 7.3.
“AAGAAGAAACAAAACACACACAGTCTTCTTTTCTAT [CACACA_site3088]” was tested, and the “gcPBM binding intensity (ln)” value was 6.8.
“TACAGAATTGTATATAGTACATAAAACAATATATAT [XGTACX_site7275]” was tested, and the “gcPBM binding intensity (ln)” value was 7.16.
With “GTATATGAATAATATTTTATGGTAATTTTTTTTTTT [XGTACX_negctrl_site512]” the “gcPBM binding intensity (ln)” value was 6.91.
“AATGAAAAGTAAAATACACACACATAATATAATTTA [CACACA_site8608]” was tested, and the “gcPBM binding intensity (ln)” value was 6.89.
“TGTGTAAAAATCATGGGTACACATTTTGATACCAAT [XGTACX_site1779]” was tested, and the “gcPBM binding intensity (ln)” value was 7.01.
“AAACTTGACGAACACACACACACATATATAAAAAAA [CACACA_site6494]” was tested, and the “gcPBM binding intensity (ln)” value was 7.38.
“ATAAATTAAAAACACACACACATCTGGATACCCCTA [CACACA_site5780]” was tested, and the “gcPBM binding intensity (ln)” value was 6.93.
